In the supplement of paper PMC7826260:
This is one part of the list. Viral Rep nickase domains cut single-stranded DNA in vitro (3 µM enzyme, 1 h, 37 °C); shown is the middle of each 90-letter strand. Uncut reads are compared with the no-enzyme pool on a log2 scale; more negative means more cut, near 0 not cut, and no call is made. Shares of all reads are compared, so uncut sequences can rise above 0 when many others are cut.

Each sequence was assayed on T1, Rep nickase domain of wheat dwarf virus (assay: uncleaved DNA left, log2 of reads against the no-enzyme library (log2 ratio); higher = less cleavage (more negative = more Rep cleavage of the k-mer); sequences stand for … in CTCGTCCG…ACCGGAGA).
T1 sequence (protein, residues 1-137, tag omitted): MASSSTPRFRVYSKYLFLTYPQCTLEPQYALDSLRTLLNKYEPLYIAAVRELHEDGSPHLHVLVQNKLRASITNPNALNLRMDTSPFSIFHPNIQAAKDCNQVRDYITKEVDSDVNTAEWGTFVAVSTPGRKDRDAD
Protocol: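 A pool of 90-nt single-stranded DNAs with seven random bases just before the constant AC of the nick site (name = the seven bases) was cut by 3 µM recombinant His6-SUMO-tagged Rep nickase domain (300 nM DNA, 50 mM HEPES pH 8.0, 50 mM NaCl, 1 mM MnCl2, 1 h, 37 °C, three replicates). Uncut DNA was amplified and sequenced.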

Sequence | uncleaved DNA left (log2)
CGTTCGC | -0.0354
AGAACCC | 0.265
CAGTGGC | -0.253
TTCCCCA | 0.125
GATCGTG | -0.175
GTCCGGA | 0.139
GTTAAAC | 0.0825
ATTCCTT | -0.0666
CCGTGAA | -0.0723
CGCTGTT | -0.292
TTGTCGC | -0.291
GTACGTC | 0.0872
CCGATCC | 0.127
AGGGAGT | 0.071
CACCTGC | 0.106
CGTCCTC | 0.175
TCCATAT | -0.0138
ATATCTG | 0.147
TTTCGAT | -0.046
TCGGTGC | -0.13

Sequence | uncleaved DNA left (log2)
CCTAACA | -0.0721
TTCAAAC | 0.0895
TCGGAAC | -0.0218
AGGGGTG | -0.0574
GACGCTT | 0.0402
ACTGGTC | -0.0609
CAATTTA | -0.401
TCCTTGG | 0.0874
AAATGGT | -1.47
TTGATCT | -0.0283
AGCCATT | 0.0555
GCACGCG | -0.162
CCAGTCA | -0.0649
AGGGCCC | 0.0458
TCCACAA | 0.0849
TGCGAAC | 0.049
GTTCGAA | -0.0177
ACGGCTC | -0.339
ATATAGG | 0.0923
TGTTCGA | -0.0167
